Results: patent publication US9945860B2, “Nicotinamide adenine dinucleotide indicators, methods of preparation and application thereof” (East China University of Science and Technology, priority 2011, dated 2018)
Where “and” joins values, the source holds several entries; their conditions need not be identical. Equal values may be shown once.

Test: Spectral characteristics of fluorescent sensors (excitation and emission spectra)
Type: physicochemical
Settings: 10 μM sensor in 100 mM KPi, pH7.4
Protocol: The fluorescent sensors that prepared above were dissolved in assay buffer (100 mM KPi, pH7.4) to formulate fluorescent sensor solutions to a final concentration of 10 μM. Then their absorption spectra were measured using a Multi-functional Fluorescence Microplate Reader (Synergy2, Biotek) (FIG. 3A).
Their excitation and emission spectra were determined using a fluorescence spectrophotometer (Cary Eclipse Fluorescence spectrophotometer, Varian) (FIG. 3B).

B1: F-rex1: NADH fluorescent sensor from pRSETb-ydiH-cpYFP-ydiH(D2), Bacillus subtilis YdiH fused with cpYFP, SEQ ID NO: 4 (protein)
chain: MRGSHHHHHHGMASMTGGQQMGRDLYDDDDKDPMNKDQSKIPQATAKRLPLYYRFLKNLHASGKQRVSSAELSDAVKVDSATIRRDFSYFGALGKKGYGYNVDYLLSFFRKTLDQDEMTDVILIGVGNLGTAFLHYNFTKNNNTKISMAFDINESKIGTEVGGVPVYNLDDLEQHVKDESVAILTVPAVAAQSITDRLVALGIKGILNFTPARLNVPEHIRIHHIDLAVELQSLVYFLKHYSVLEEIETSYNSDNVYIMADKQKNGIKANFKIRHNVEDGSVQLADHYQQNTPIGDGPVLLPDNHYLSFQSVLSKDPNEKRDHMVLLEFVTAAGITLGMDELYNVDGGSGGTGSKGEELFTGVVPILVELDGDVNGHKFSVSGEGEGDATYGKLTLKLICTTGKLPVPWPTLVTTLGYGLKCFARYPDHMKQHDFFKSAMPEGYVQERTIFFKDDGNYKTRAEVKFEGDTLVNRIELKGIGFKEDGNILGHKLEYNGTMTDVILIGVGNLGTAFLHYNFTKNNNTKISMAFDINESKIGTEVGGVPVYNLDDLEQHVKDESVAILTVPAVAAQSITDRLVALGIKGILNFTPARLNVPEHIRIHHIDLAVELQSLVYFLKHYSVLEEIE
modifications: synthetic fluorescent sensor
emission peak: 521 nm | excitation peaks: 400 nm and 490 nm | intensity of the latter excitation peak relative to the former: five times
